Measurements as given in PubChem BioAssay AID686971 (National Center for Advancing Translational Sciences (NCATS), 2013).
Out of some 360,000 compounds screened, about 7,500 (2.1%) were called active. This list was built around the results that the source calls inconclusive (neither active nor inactive); the mix of calls is not that of the screen. Calls follow the shape of the dose curve; as a rule, active = well fitted cell-killing curve with a large enough effect; inconclusive = small, poorly fitted or top-dose-only effect, or effect the other way, or another doubt; inactive = no such curve, though single readings can be large or run the other way. Potencies of inconclusive entries are left out as doubtful fits.

Test: qHTS for induction of synthetic lethality in tumor cells producing 2HG: qHTS for the HT-1080-IDH1KD cell line;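 as to activity, negative = toxicity: 0% = DMSO wells and -100% = cell-free medium wells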
Details: HT-1080 IDH1 knockdown viability, ATP luminescence, 48 h; activity, negative = toxicity: at 46.1 µM (top of the series) unless noted
Summary of the method: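 HT-1080-IDH1KD cells (IDH1 knocked down), 750/well in RPMI with 5% FBS, treated with compound 48 h at 37 degrees C. Viability by CellTiter-Glo luminescence, normalised to DMSO and no-cell wells; concentration-response curves classed.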
Potency is read from the fitted curve at half-maximal effect; tags tell the direction and shape of the fitted curve.

With `C=C(C)c1cccc(C(C)(C)NC(=O)N2CCC(C(N)=O)CC2)c1` as the molecule, how does the Potency read?
Its Potency is “inactive”.

For `COc1cccc(-c2nn(-c3ccccc3)cc2CN(C)Cc2c(C)nc3ccccn23)c1`, which Potency is on record?
Its Potency is inconclusive [cytotoxic, single point].

Which Potency does the source give for `Cc1cccc(C)c1NC(=O)Cn1nnnc1N` here?
The Potency was “inactive”.

Which Potency does the source give for `OC(c1cc(-c2cccc(Cl)c2)nc2ccccc12)C1CCCCN1` (configuration not stated) here?
The Potency was active: 2.91 µM.

Which Potency does the source give for `COc1ccc(N(C)C(=S)Nc2ccc3nc(C)c(C)nc3c2)cc1` here?
The Potency was “inactive”.

Which Potency does the source give for `COCC(C)n1c(C)cc(C(=O)CSc2nc3ccccc3c(=O)[nH]2)c1C` (configuration not stated) here?
The Potency was inconclusive [cytotoxic, single point].

With `O=C1NC[C@H](c2ccccc2)OC(=O)[C@@H](Cc2ccc(F)cc2)C/C=C\C[C@H]1CC(=O)N(CCO)Cc1ccccc1` as the molecule, how does the Potency read?
Its Potency is inconclusive [cytotoxic, single point].

Which Potency does the source give for `CCOC(=O)N1CCN(CC(=O)Nc2sc(CC)cc2C(=O)c2ccc(OC)cc2)CC1` here?
The Potency was inconclusive [cytotoxic, single point].

Which Potency does the source give for `CO/N=C\CC(=O)Nc1ccc(Cl)c(Cl)c1` here?
Its Potency is active: 6.51 µM.

For `CCN(CC)CCN(C(=O)c1ccc2c(c1)CCCC2)c1nc2ccc(OC)cc2s1`, which activity, negative = toxicity is on record?
The activity, negative = toxicity was inconclusive: -31.6% [cytotoxic].

Which Potency does the source give for `Cc1ccc2c(c1)-c1nc3ccccc3cc1C2=NC1CCCCC1` here?
The Potency was inconclusive [cytotoxic, single point].

With `CCCCCC(=O)N1C[C@H](n2cc(COC(=O)c3ccccc3)nn2)[C@@H](O)C[C@@H]1c1ccc(Cl)cc1` as the molecule, how does the Potency read?
The Potency was inconclusive [cytotoxic, single point].

With `NNc1nc2c(-c3cccc(C(F)(F)F)c3)nnn2c2ccccc12` as the molecule, how does the Potency read?
The Potency was active: 20.6 µM.

For `CCCCCn1c2c(c(=N)c3ccccc31)CCC2`, which Potency is on record?
The Potency was active: 2.91 µM.

Which Potency does the source give for `Cc1nc2c(O)c3c(c(O)c2nc1C)C1C=CC3CC1` here?
Its Potency is active: 16.4 µM.

For `Cc1cc(SCc2ccc(Cl)cc2Cl)nc(=O)[nH]1`, which Potency is on record?
The Potency was inconclusive [cytotoxic, single point].

With `O=C(CSc1ncc(-c2ccc(F)cc2)n1Cc1ccco1)Nc1nccs1` as the molecule, how does the Potency read?
Its Potency is “inactive”.

For `CSc1cccc(NC(=S)N(CCCN2CCCC(C)C2)Cc2cccs2)c1` (configuration not stated), which Potency is on record?
Its Potency is inconclusive [cytotoxic, partial curve].

Which Potency does the source give for `O=C(NCC(=O)N(c1ccccc1)C(C(=O)NC1CCCC1)c1ccncc1)c1cccs1` (configuration not stated) here?
The Potency was “inactive”.

With `Cn1cc(Br)c(C(=O)Nc2sc3c(c2C(N)=O)CCCC3)n1` as the molecule, how does the Potency read?
The Potency was “inactive”.

Which Potency does the source give for `CC(=O)Oc1cc(C)cc2oc(=O)cc(-c3ccccc3)c12` here?
The Potency was inconclusive [cytotoxic, single point].

Which Potency does the source give for `CS(=O)(=O)N1CCN(c2ccc(C(=O)NC3C4CC5CC(C4)CC3C5)cc2[N+](=O)[O-])CC1` (configuration not stated) here?
Its Potency is inconclusive [cytotoxic, single point].

With `CCN(CC)S(=O)(=O)c1cccc(C(=O)N/N=C/c2ccc([N+](=O)[O-])o2)c1` as the molecule, how does the Potency read?
The Potency was active: 18.4 µM.

With `CC(=O)N(C1=C(Cl)C(=O)c2ccccc2C1=O)c1ccc(C(=O)O)cc1` as the molecule, how does the Potency read?
Its Potency is inconclusive [cytotoxic, single point].

With `C=CCNC(=O)C1COc2ccccc2O1` (configuration not stated) as the molecule, how does the Potency read?
Its Potency is “inactive”.

With `Brc1cc2c(cc1/C=N/Nc1nc(N3CCOCC3)nc(N3CCOCC3)n1)OCO2` as the molecule, how does the Potency read?
The Potency was “inactive”.

For `CN1CCN(c2nc(-c3ccncc3)nc3ccccc23)CC1`, which Potency is on record?
Its Potency is inconclusive [cytotoxic, single point].

For `CCOC(=O)c1[nH]c(C)c(C(=O)c2cc(F)ccc2F)c1C`, which Potency is on record?
Its Potency is active: 0.447 µM.

With `CC(NC(=S)NCCc1ccccc1)C(c1cccs1)N1CCN(C)CC1` (configuration not stated) as the molecule, how does the Potency read?
The Potency was “inactive”.

For `COc1ccc(-c2nc3cccc(C)n3c2NCC2CCCO2)cc1O` (configuration not stated), which Potency is on record?
The Potency was “inactive”.

With `C[C@H](CO)N1C[C@H](C)[C@H](CN(C)S(=O)(=O)c2cn(C)cn2)Oc2ccc(NC(=O)Nc3ccc(C(F)(F)F)cc3)cc2CC1=O` as the molecule, how does the Potency read?
Its Potency is active: 23.1 µM.

Which Potency does the source give for `CC(NS(=O)(=O)c1ccccc1)C(c1cccs1)N1CCN(c2ccccc2)CC1` (configuration not stated) here?
The Potency was inconclusive [cytotoxic, single point].

For `O=C(O)c1ccc(N2CCN(c3ccc(Cl)cc3)CC2)c([N+](=O)[O-])c1`, which Potency is on record?
Its Potency is “inactive”.

With `CC1CCc2sc(C(=O)Nc3ccc(N4CCOCC4)cc3)cc2C1` (configuration not stated) as the molecule, how does the Potency read?
Its Potency is inconclusive [cytotoxic, partial curve].

For `Cc1ccc(N=c2ssnc2Cl)cc1`, which Potency is on record?
Its Potency is inconclusive [cytotoxic, single point].

Which Potency does the source give for `CC[n+]1c(-c2ccccc2)csc1Nc1c(C)n(C)n(-c2ccccc2)c1=O` here?
Its Potency is “inactive”.

For `COCc1cccc(-c2csc(C(C)(O)c3cccc(F)c3)n2)c1` (configuration not stated), which Potency is on record?
The Potency was inconclusive [cytotoxic, single point].

With `Cc1c(Cl)cccc1NC(=O)C1C2C=CC(C2)C1C(=O)O` (configuration not stated) as the molecule, how does the Potency read?
The Potency was “inactive”.

With `c1ccc(-c2noc(COc3ccc4c(c3)OCO4)n2)cc1` as the molecule, how does the Potency read?
The Potency was inconclusive [cytotoxic, single point].

With `Cn1c(=O)c2cc(NC(=O)NCc3ccccc3)ccc2n1C/C=C/c1ccccc1` as the molecule, how does the Potency read?
Its Potency is active: 8.2 µM.

Which Potency does the source give for `C[C@]12c3[nH]c4cc(-c5ccco5)ccc4c3CCN1C(=O)[C@@H](CC(=O)NCCC1=CCCCC1)C[C@@H]2C(=O)N1CCCCC1` here?
The Potency was inconclusive [cytotoxic, single point].

For `CC(Oc1ccc(F)cc1)C(=O)Nc1nc(-c2ccccn2)cs1` (configuration not stated), which Potency is on record?
Its Potency is inconclusive [cytotoxic, full curve].

For `CCn1c(SCC(=O)N2CCCCC2)nc2c(c1=O)SCC2`, which Potency is on record?
The Potency was “inactive”.

For `COc1ccc(C(=O)Nc2cc(-c3ccc(C)cc3)no2)cc1`, which Potency is on record?
Its Potency is inconclusive [cytotoxic, single point].

For `COc1ccccc1-c1nnc(NC(=O)c2ccc(S(=O)(=O)N3CCCC3)cc2)o1`, which Potency is on record?
Its Potency is inconclusive [cytotoxic, partial curve].

With `NS(=O)(=O)c1ccc(CCNc2nc(CN3CCCCC3)nc3sc4c(c23)CCC4)cc1` as the molecule, how does the Potency read?
Its Potency is inconclusive [cytotoxic, single point].

Which Potency does the source give for `COc1ccc(NC2CCCN(C(=O)c3c(C)noc3C)C2)cc1` (configuration not stated) here?
The Potency was “inactive”.
